The supplement of paper PMC10037445
Several values for one entry are separate records, joined by “and”; a condition that tells them apart may be missing. Equal entries are not always repeated. Over roughly 2,900 compounds, “NF-kB SEAP reporter activity, fold change vs agonist alone” has its median near 0.99; the highest 2% begin near 2.6. The list shows a part of the results.

Assays:
RAW-Dual [1] = assay: NF-kB SEAP reporter activity, fold change vs agonist alone; higher = enhanced NF-kB activity
Outline: (§1)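 RAW-Dual macrophages were seeded in DMEM at 50,000 cells/well in 384-well plates, given 50 nL of library stock by pin tool, and given a PRR agonist 1 h later. Plates were held at 37 °C, 5% CO2 for 20 hours, after which supernatant was read for IRF by QuantiLuc luminescence and for NF-κB by QuantiBlue absorbance at 620 nm. Reporter activity is expressed as fold change over wells that received agonist alone. A well was called cytotoxic when IncuCyte confluency fell below 70% of agonist controls in both mask sets.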

RAW-Dual [2] = assay: NF-kB SEAP reporter activity, fold change vs agonist alone; cytotoxicity flag (confluency mask): not cytotoxic; higher = enhanced NF-kB activity
Outline: as §1

RAW-Dual [3] = assay: NF-kB SEAP reporter activity, fold change vs agonist alone; cytotoxicity flag (confluency mask): cytotoxic (confluency <70% of control); higher = enhanced NF-kB activity
Outline: as §1

[4] = library stock concentration (final ~1000-fold dilution): 10 mM, cytotoxicity flag (confluency mask): not cytotoxic, agonist: Imiquimod (TLR7) […]
[5] = library stock concentration (final ~1000-fold dilution): 10 mM, cytotoxicity flag (confluency mask): not cytotoxic, agonist: MPLA (TLR4) […]
[6] = agonist: ODN 1826 (TLR9) 0.5 ug/mL
[7] = agonist: Pam2CSK4 (TLR2/6) 0.1 ug/mL
[8] = agonist: Pam3CSK4 (TLR2/1) 0.1 ug/mL
[9] = library stock concentration (final ~1000-fold dilution): 10 mM, cytotoxicity flag (confluency mask): cytotoxic (confluency <70% of control), agonist: Imiquimod (TLR7) […]
[10] = library stock concentration (final ~1000-fold dilution): 10 mM, cytotoxicity flag (confluency mask): cytotoxic (confluency <70% of control), agonist: MPLA (TLR4) […]

COc1ccc(-n2c(C)c([N+](=O)[O-])c3ccc(O)cc32)cc1
NF-kB SEAP reporter activity (RAW-Dual [1]; [4]): 1.19 | NF-kB SEAP reporter activity (RAW-Dual [1]; [5]): 2.08

COc1ccc(-n2c(C)c([N+](=O)[O-])c3ccc(O)cc32)cc1 (library stock concentration (final ~1000-fold dilution): 10 mM)
NF-kB SEAP reporter activity (RAW-Dual [2]; agonist: LPS (TLR4) 0.1 ug/mL): 1.9 | NF-kB SEAP reporter activity (RAW-Dual [2]; [6]): 0.559 | NF-kB SEAP reporter activity (RAW-Dual [2]; [7]): 1.07 | NF-kB SEAP reporter activity (RAW-Dual [2]; [8]): 2.14

O=S(=O)(c1ccccc1)c1cnc2c(N3CCNCC3)cccc2c1 (library stock concentration (final ~1000-fold dilution): 10 mM)
NF-kB SEAP reporter activity (RAW-Dual [2]; agonist: LPS (TLR4) 0.1 ug/mL): 0.796 | NF-kB SEAP reporter activity (RAW-Dual [2]; [6]): 0.35 | NF-kB SEAP reporter activity (RAW-Dual [2]; [7]): 0.984 | NF-kB SEAP reporter activity (RAW-Dual [2]; [8]): 1.1

O=S(=O)(c1ccccc1)c1cnc2c(N3CCNCC3)cccc2c1
NF-kB SEAP reporter activity (RAW-Dual [1]; [4]): 1.02 | NF-kB SEAP reporter activity (RAW-Dual [1]; [5]): 0.963

NC(=O)N1CCC(CC(=O)N2CCC(C3c4ncc(Br)cc4CCc4cc(Cl)cc(Br)c43)CC2)CC1 (centres undefined) (library stock concentration (final ~1000-fold dilution): 10 mM)
NF-kB SEAP reporter activity (RAW-Dual [3]; agonist: LPS (TLR4) 0.1 ug/mL): 0.422 | NF-kB SEAP reporter activity (RAW-Dual [3]; [6]): 0.347 | NF-kB SEAP reporter activity (RAW-Dual [3]; [7]): 0.171 | NF-kB SEAP reporter activity (RAW-Dual [3]; [8]): 0.223

NC(=O)N1CCC(CC(=O)N2CCC(C3c4ncc(Br)cc4CCc4cc(Cl)cc(Br)c43)CC2)CC1 (centres undefined)
NF-kB SEAP reporter activity (RAW-Dual [1]; [9]): 0.614 | NF-kB SEAP reporter activity (RAW-Dual [1]; [10]): 0.603

CCOc1cc(C(C)(C)C)ccc1C1=NC(C)(c2ccc(Cl)cc2)C(C)(c2ccc(Cl)cc2)N1C(=O)N1CCN(CCCS(C)(=O)=O)CC1 (centres undefined)
NF-kB SEAP reporter activity (RAW-Dual [1]; [9]): 1.13 | NF-kB SEAP reporter activity (RAW-Dual [1]; [10]): 0.79

CCOc1cc(C(C)(C)C)ccc1C1=NC(C)(c2ccc(Cl)cc2)C(C)(c2ccc(Cl)cc2)N1C(=O)N1CCN(CCCS(C)(=O)=O)CC1 (centres undefined) (library stock concentration (final ~1000-fold dilution): 10 mM)
NF-kB SEAP reporter activity (RAW-Dual [3]; agonist: LPS (TLR4) 0.1 ug/mL): 0.487 | NF-kB SEAP reporter activity (RAW-Dual [3]; [6]): 0.354 | NF-kB SEAP reporter activity (RAW-Dual [3]; [7]): 0.161 | NF-kB SEAP reporter activity (RAW-Dual [3]; [8]): 0.179

CCCC(=O)Nc1ccc(OCC(O)CNC(C)C)c(C(C)=O)c1.Cl (centres undefined) (library stock concentration (final ~1000-fold dilution): 10 mM)
NF-kB SEAP reporter activity (RAW-Dual [2]; agonist: LPS (TLR4) 0.1 ug/mL): 1.54 | NF-kB SEAP reporter activity (RAW-Dual [2]; [6]): 1.08 | NF-kB SEAP reporter activity (RAW-Dual [2]; [7]): 1.11 | NF-kB SEAP reporter activity (RAW-Dual [2]; [8]): 1.16

CCCC(=O)Nc1ccc(OCC(O)CNC(C)C)c(C(C)=O)c1.Cl (centres undefined)
NF-kB SEAP reporter activity (RAW-Dual [1]; [4]): 1 | NF-kB SEAP reporter activity (RAW-Dual [1]; [5]): 1.08

CCCCS(=O)c1sc2nc(-c3cccs3)cc(-c3ccccc3)c2c1N (centres undefined) (library stock concentration (final ~1000-fold dilution): 10 mM)
NF-kB SEAP reporter activity (RAW-Dual [2]; agonist: LPS (TLR4) 0.1 ug/mL): 1.55 | NF-kB SEAP reporter activity (RAW-Dual [2]; [6]): 0.779 | NF-kB SEAP reporter activity (RAW-Dual [2]; [7]): 0.91 | NF-kB SEAP reporter activity (RAW-Dual [2]; [8]): 0.544

CCCCS(=O)c1sc2nc(-c3cccs3)cc(-c3ccccc3)c2c1N (centres undefined)
NF-kB SEAP reporter activity (RAW-Dual [1]; [4]): 0.589 | NF-kB SEAP reporter activity (RAW-Dual [1]; [5]): 1.42

Nc1nc2[nH]cc(CCc3ccc(C(=O)NC(CCC(=O)O)C(=O)O)cc3)c2c(=O)[nH]1 (centres undefined) (library stock concentration (final ~1000-fold dilution): 10 mM water)
NF-kB SEAP reporter activity (RAW-Dual [2]; agonist: LPS (TLR4) 0.1 ug/mL): 1.51 and 1.2 | NF-kB SEAP reporter activity (RAW-Dual [2]; [6]): 1.67 and 1.49 | NF-kB SEAP reporter activity (RAW-Dual [2]; [7]): 1.45 and 1.39 | NF-kB SEAP reporter activity (RAW-Dual [2]; [8]): 1.52 and 1.31

CC1(c2nc3c(C(N)=O)cccc3[nH]2)CCCN1 (centres undefined)
NF-kB SEAP reporter activity (RAW-Dual [1]; [4]): 1.05 | NF-kB SEAP reporter activity (RAW-Dual [1]; [5]): 0.99

CC1(c2nc3c(C(N)=O)cccc3[nH]2)CCCN1 (centres undefined) (library stock concentration (final ~1000-fold dilution): 10 mM)
NF-kB SEAP reporter activity (RAW-Dual [2]; agonist: LPS (TLR4) 0.1 ug/mL): 1.14 | NF-kB SEAP reporter activity (RAW-Dual [2]; [6]): 0.972 | NF-kB SEAP reporter activity (RAW-Dual [2]; [7]): 0.955 | NF-kB SEAP reporter activity (RAW-Dual [2]; [8]): 0.991

COc1ccc(CCC(=O)N(c2nccc3ccccc23)C2CCCNC2)cc1 (centres undefined) (library stock concentration (final ~1000-fold dilution): 10 mM)
NF-kB SEAP reporter activity (RAW-Dual [2]; agonist: LPS (TLR4) 0.1 ug/mL): 1.05 | NF-kB SEAP reporter activity (RAW-Dual [2]; [6]): 0.84 | NF-kB SEAP reporter activity (RAW-Dual [2]; [7]): 1.09 | NF-kB SEAP reporter activity (RAW-Dual [2]; [8]): 1.08

COc1ccc(CCC(=O)N(c2nccc3ccccc23)C2CCCNC2)cc1 (centres undefined)
NF-kB SEAP reporter activity (RAW-Dual [1]; [4]): 1.07 | NF-kB SEAP reporter activity (RAW-Dual [1]; [5]): 1.29

CC(C)CN(CC(O)C(Cc1ccccc1)NC(=O)OC1COC2OCCC12)S(=O)(=O)c1ccc(N)cc1.CCO (centres undefined) (library stock concentration (final ~1000-fold dilution): 10 mM)
NF-kB SEAP reporter activity (RAW-Dual [2]; agonist: LPS (TLR4) 0.1 ug/mL): 1.78 | NF-kB SEAP reporter activity (RAW-Dual [2]; [6]): 1.57 | NF-kB SEAP reporter activity (RAW-Dual [2]; [7]): 1.42 | NF-kB SEAP reporter activity (RAW-Dual [2]; [8]): 1.43

CC(C)CN(CC(O)C(Cc1ccccc1)NC(=O)OC1COC2OCCC12)S(=O)(=O)c1ccc(N)cc1.CCO (centres undefined)
NF-kB SEAP reporter activity (RAW-Dual [1]; [4]): 1.42 | NF-kB SEAP reporter activity (RAW-Dual [1]; [5]): 1.49

O=c1cc(N2CCOCC2)oc2c(-c3cccc4c3sc3ccccc34)cccc12 (library stock concentration (final ~1000-fold dilution): 2 mM)
NF-kB SEAP reporter activity (RAW-Dual [2]; agonist: LPS (TLR4) 0.1 ug/mL): 5.39

CCCCc1nc(-c2ccc(OCCCN(CC)CC)cc2)cn1-c1ccc(Oc2ccc(Cl)cc2)cc1 (library stock concentration (final ~1000-fold dilution): 10 mM)
NF-kB SEAP reporter activity (RAW-Dual [3]; agonist: LPS (TLR4) 0.1 ug/mL): 0.281 | NF-kB SEAP reporter activity (RAW-Dual [3]; [6]): 0.683 | NF-kB SEAP reporter activity (RAW-Dual [3]; [7]): 0.225 | NF-kB SEAP reporter activity (RAW-Dual [3]; [8]): 0.192

CCCCc1nc(-c2ccc(OCCCN(CC)CC)cc2)cn1-c1ccc(Oc2ccc(Cl)cc2)cc1
NF-kB SEAP reporter activity (RAW-Dual [1]; [9]): 1.53 | NF-kB SEAP reporter activity (RAW-Dual [1]; [10]): 1.02

CCC(C)n1cc(C)c2c(C(=O)NCc3c(C)cc(C)[nH]c3=O)cc(-c3ccc(N4CCNCC4)nc3)cc21 (centres undefined) (library stock concentration (final ~1000-fold dilution): 2 mM)
NF-kB SEAP reporter activity (RAW-Dual [2]; agonist: LPS (TLR4) 0.1 ug/mL): 1.17 | NF-kB SEAP reporter activity (RAW-Dual [2]; [6]): 0.973 | NF-kB SEAP reporter activity (RAW-Dual [2]; [7]): 0.979 | NF-kB SEAP reporter activity (RAW-Dual [2]; [8]): 1.07

CCC(C)n1cc(C)c2c(C(=O)NCc3c(C)cc(C)[nH]c3=O)cc(-c3ccc(N4CCNCC4)nc3)cc21 (centres undefined)
NF-kB SEAP reporter activity (RAW-Dual [1]; library stock concentration (final ~1000-fold dilution): 2 mM, cytotoxicity flag (confluency mask): not cytotoxic, agonist: Imiquimod (TLR7) […]): 0.954 | NF-kB SEAP reporter activity (RAW-Dual [1]; library stock concentration (final ~1000-fold dilution): 2 mM, cytotoxicity flag (confluency mask): not cytotoxic, agonist: MPLA (TLR4) […]): 0.941

COc1ccc([C@@H]2CC(=O)c3c(O)cc(O[C@@H]4O[C@H](CO[C@@H]5O[C@@H](C)[C@H](O)[C@@H](O)[C@H]5O)[C@@H](O)[C@H](O)[C@H]4O)cc3O2)cc1O
NF-kB SEAP reporter activity (RAW-Dual [1]; [4]): 0.983 | NF-kB SEAP reporter activity (RAW-Dual [1]; [5]): 1.04

COc1ccc([C@@H]2CC(=O)c3c(O)cc(O[C@@H]4O[C@H](CO[C@@H]5O[C@@H](C)[C@H](O)[C@@H](O)[C@H]5O)[C@@H](O)[C@H](O)[C@H]4O)cc3O2)cc1O (library stock concentration (final ~1000-fold dilution): 10 mM)
NF-kB SEAP reporter activity (RAW-Dual [2]; agonist: LPS (TLR4) 0.1 ug/mL): 0.857 | NF-kB SEAP reporter activity (RAW-Dual [2]; [6]): 0.912 | NF-kB SEAP reporter activity (RAW-Dual [2]; [7]): 0.775 | NF-kB SEAP reporter activity (RAW-Dual [2]; [8]): 0.745

Cc1n[nH]c2ccc(-c3cncc(OCC(N)Cc4ccccc4)c3)cc12 (centres undefined)
NF-kB SEAP reporter activity (RAW-Dual [1]; [4]): 0.904 | NF-kB SEAP reporter activity (RAW-Dual [1]; [5]): 0.967

Cc1n[nH]c2ccc(-c3cncc(OCC(N)Cc4ccccc4)c3)cc12 (centres undefined) (library stock concentration (final ~1000-fold dilution): 10 mM)
NF-kB SEAP reporter activity (RAW-Dual [2]; agonist: LPS (TLR4) 0.1 ug/mL): 0.198 | NF-kB SEAP reporter activity (RAW-Dual [2]; [6]): 0.962 | NF-kB SEAP reporter activity (RAW-Dual [2]; [7]): 0.447 | NF-kB SEAP reporter activity (RAW-Dual [2]; [8]): 1.01

O=C(/C=C/c1ccc(O)c(O)c1)O[C@@H](C(=O)O)[C@@H](OC(=O)/C=C/c1ccc(O)c(O)c1)C(=O)O (library stock concentration (final ~1000-fold dilution): 10 mM)
NF-kB SEAP reporter activity (RAW-Dual [2]; agonist: LPS (TLR4) 0.1 ug/mL): 1.06 | NF-kB SEAP reporter activity (RAW-Dual [2]; [6]): 1.06 | NF-kB SEAP reporter activity (RAW-Dual [2]; [7]): 1.17 | NF-kB SEAP reporter activity (RAW-Dual [2]; [8]): 1.07

O=C(/C=C/c1ccc(O)c(O)c1)O[C@@H](C(=O)O)[C@@H](OC(=O)/C=C/c1ccc(O)c(O)c1)C(=O)O
NF-kB SEAP reporter activity (RAW-Dual [1]; [4]): 0.78 | NF-kB SEAP reporter activity (RAW-Dual [1]; [5]): 1.01
